# This is one part of the list.
# Test system: T1, C. trachomatis L2/434/Bu expressing GFP (CTL2-GFP)
# T1 construct: L2/434/Bu GFP intracellular growth in HeLa cells
# Parameters: species or system HeLa; C. trachomatis total inclusion area by high-content imaging, normalised to DMSO
# Conditions: total inclusion area; 28.5 h, 10 µM; inhibitor
# How it was run: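 After bulk GFP and resorufin fluorescence reads, cells were fixed, stained with Hoechst and imaged by high-content microscopy. Inclusion area and number (GFP) stood in for chlamydial growth, nuclei count (Hoechst) for host cell viability. MICs were derived as for the bulk readout.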
row,SMILES,% of control remaining
1,Cn1cc(CNCCCN2CCc3ccccc32)c(-c2cccnc2)n1 [CBK306316],43.4608
2,Cc1csc(CNCc2c(C(C)C)nn(C)c2N(C)C)n1 [CBK305089],78.8762
3,O=C(NCc1ccc2c(c1)OCO2)c1cnc2sccn2c1=O [CBK287446],77.5904
4,C#CCN1N=C(c2ccc(OC)cc2)Cn2c(cc3sccc32)C1=O [CBK284209],55.5846
5,CC(Oc1ccccc1)C(=O)Nc1ccc(-c2csc(-c3ccccc3)n2)cc1 (stereo not drawn) [CBK268855],88.3836
6,CCOC(=O)Cn1c(-c2ccc(OC)cc2)cc2cccnc21 [CBK283320],108.531
7,CCOC(=O)c1cccnc1-c1cc2ccccc2o1 [CBK149237],122.484
8,Cc1ccc(S(=O)(=O)N2/C(=C\COc3ccc(Cl)cc3Cl)C(N3CCOCC3)c3ccccc32)cc1 (stereo not drawn) [CBK262740],99.5101
9,COc1cccc(OCCN2CCC3(C2)NCCc2c3[nH]c3cc(OC)ccc23)c1 (stereo not drawn) [CBK061794],88.9028
10,O=C(NC(c1ccccn1)c1cccs1)C1CCN(S(=O)(=O)c2ccc(C(F)(F)F)cc2)CC1 (stereo not drawn) [CBK060153],111.109
11,c1cncc(COc2ccnc(N3CCCN(CCN4CCOCC4)CC3)n2)c1 [CBK084122],82.9598
12,CC(=O)c1ccc(NC(=O)N2Cc3nc[nH]c3C[C@H]2c2nc(-c3ccc(C)cc3)no2)cc1 [CBK288959],75.2272
13,CN(Cc1cccnc1)C(=O)CSC(c1ccccc1)c1ccccc1 [CBK298284],110.732
14,O=C1Cc2ccccc2C2(CCN(C(=O)NCc3cccc(F)c3)CC2)N1 [CBK047288],96.6517
15,Cc1nc(C(=O)N2CCn3nc(C(O)c4ccccc4)cc3C2)c(C)s1 (stereo not drawn) [CBK307474],58.3475
16,O=C(NCCCc1ccccn1)c1cc(C2CCCCC2)no1 [CBK283296],92.4652
17,CCOC(=O)C(NC(=O)CCn1ccc2ccncc21)C(C)C (stereo not drawn) [CBK284719],103.278
18,COc1ccc(S(=O)(=O)Nc2ccc3oc(-c4ccccc4F)cc(=O)c3c2)cc1 [CBK300518],78.7418
19,CCC(c1cccnc1)N(C)C(=O)c1ccc(=O)n(C)c1 (stereo not drawn) [CBK306802],122.283
20,O=C(CC1c2ccccc2Oc2ccccc21)N1CCc2nc3ccccc3c(=O)n2CC1 [CBK286314],112.897
21,C=CCn1c(Cc2csc(NC(=O)CCc3nc4ccccc4c(=O)[nH]3)n2)n[nH]c1=S [CBK297888],76.897

# Source: PMC12040169 (PLOS Biology, 2025)
